{"source": "paper PMC9986587", "binders": {"B1": {"name": "6Myc-JMJD2A (protein, UniProt O75164 1-1064)", "chain": "MASESETLNPSARIMTFYPTMEEFRNFSRYIAYIESQGAHRAGLAKVVPPKEWKPRASYDDIDDLVIPAPIQQLVTGQSGLFTQYNIQKKAMTVREFRKIANSDKYCTPRYSEFEELERKYWKNLTFNPPIYGADVNGTLYEKHVDEWNIGRLRTILDLVEKESGITIEGVNTPYLYFGMWKTSFAWHTEDMDLYSINYLHFGEPKSWYSVPPEHGKRLERLAKGFFPGSAQSCEAFLRHKMTLISPLMLKKYGIPFDKVTQEAGEFMITFPYGYHAGFNHGFNCAESTNFATRRWIEYGKQAVLCSCRKDMVKISMDVFVRKFQPERYKLWKAGKDNTVIDHTLPTPEAAEFLKESELPPRAGNEEECPEEDMEGVEDGEEGDLKTSLAKHRIGTKRHRVCLEIPQEVSQSELFPKEDLSSEQYEMTECPAALAPVRPTHSSVRQVEDGLTFPDYSDSTEVKFEELKNVKLEEEDEEEEQAAAALDLSVNPASVGGRLVFSGSKKKSSSSLGSGSSRDSISSDSETSEPLSCRAQGQTGVLTVHSYAKGDGRVTVGEPCTRKKGSAARSFSERELAEVADEYMFSLEENKKSKGRRQPLSKLPRHHPLVLQECVSDDETSEQLTPEEEAEETEAWAKPLSQLWQNRPPNFEAEKEFNETMAQQAPHCAVCMIFQTYHQVEFGGFNQNCGNASDLAPQKQRTKPLIPEMCFTSTGCSTDINLSTPYLEEDGTSILVSCKKCSVRVHASCYGVPPAKASEDWMCSRCSANALEEDCCLCSLRGGALQRANDDRWVHVSCAVAILEARFVNIAERSPVDVSKIPLPRFKLKCIFCKKRRKRTAGCCVQCSHGRCPTAFHVSCAQAAGVMMQPDDWPFVVFITCFRHKIPNLERAKGALQSITAGQKVISKHKNGRFYQCEVVRLTTETFYEVNFDDGSFSDNLYPEDIVSQDCLQFGPPAEGEVVQVRWTDGQVYGAKFVASHPIQMYQVEFEDGSQLVVKRDDVYTLDEELPKRVKSRLSVASDMRFNEIFTEKEVKQEKKRQRVINSRYREDYIEPALYRAIME"}, "B2": {"name": "endogenous JMJD2A (protein, UniProt O75164 1-1064)", "chain": "B1 chain"}}, "key": {"Flag-JMJD1A": {"target": "T1, Flag-JMJD1A (UniProt Q9Y4C1)", "T1 sequence": "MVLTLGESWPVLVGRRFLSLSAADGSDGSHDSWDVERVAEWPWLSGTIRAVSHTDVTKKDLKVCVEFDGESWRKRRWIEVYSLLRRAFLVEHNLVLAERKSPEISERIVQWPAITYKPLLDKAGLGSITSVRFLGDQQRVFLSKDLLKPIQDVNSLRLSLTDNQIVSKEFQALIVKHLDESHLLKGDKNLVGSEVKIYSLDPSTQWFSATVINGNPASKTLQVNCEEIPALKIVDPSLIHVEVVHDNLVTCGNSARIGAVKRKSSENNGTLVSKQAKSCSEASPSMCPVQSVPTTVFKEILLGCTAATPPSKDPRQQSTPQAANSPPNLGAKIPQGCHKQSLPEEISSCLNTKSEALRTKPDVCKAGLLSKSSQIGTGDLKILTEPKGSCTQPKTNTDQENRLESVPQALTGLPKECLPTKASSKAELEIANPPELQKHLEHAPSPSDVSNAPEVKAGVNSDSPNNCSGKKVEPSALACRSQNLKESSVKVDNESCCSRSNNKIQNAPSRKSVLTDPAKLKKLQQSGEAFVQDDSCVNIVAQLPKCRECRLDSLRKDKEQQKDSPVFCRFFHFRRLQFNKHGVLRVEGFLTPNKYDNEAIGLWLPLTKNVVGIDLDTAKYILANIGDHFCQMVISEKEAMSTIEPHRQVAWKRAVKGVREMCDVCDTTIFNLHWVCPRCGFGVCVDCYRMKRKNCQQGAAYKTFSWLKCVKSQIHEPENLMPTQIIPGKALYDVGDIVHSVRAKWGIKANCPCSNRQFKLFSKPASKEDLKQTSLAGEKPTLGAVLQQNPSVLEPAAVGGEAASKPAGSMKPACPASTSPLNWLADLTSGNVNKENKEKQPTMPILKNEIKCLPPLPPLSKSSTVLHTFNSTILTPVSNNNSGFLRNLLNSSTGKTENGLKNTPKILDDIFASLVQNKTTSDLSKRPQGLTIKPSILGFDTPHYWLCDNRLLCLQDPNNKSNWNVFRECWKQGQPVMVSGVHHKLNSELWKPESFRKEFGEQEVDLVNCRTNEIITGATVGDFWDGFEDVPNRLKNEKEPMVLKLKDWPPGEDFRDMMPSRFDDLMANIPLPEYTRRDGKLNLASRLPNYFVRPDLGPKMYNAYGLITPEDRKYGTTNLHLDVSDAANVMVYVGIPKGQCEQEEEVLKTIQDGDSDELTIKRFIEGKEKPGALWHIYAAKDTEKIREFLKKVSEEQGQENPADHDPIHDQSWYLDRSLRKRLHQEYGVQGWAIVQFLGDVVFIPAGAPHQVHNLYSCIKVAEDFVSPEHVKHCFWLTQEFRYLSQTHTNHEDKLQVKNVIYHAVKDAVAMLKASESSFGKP", "test": "co-IP; 293T cells transiently cotransfected with a Flag-tagged and a 6Myc-tagged protein; cell extracts two days after transfection; immunoprecipitation with anti-Flag antibodies, anti-Myc Western blot"}, "[1]": {"target": "T2, Flag-tagged JMJD1A amino acids 2-650 (UniProt Q9Y4C1)", "T2 sequence": "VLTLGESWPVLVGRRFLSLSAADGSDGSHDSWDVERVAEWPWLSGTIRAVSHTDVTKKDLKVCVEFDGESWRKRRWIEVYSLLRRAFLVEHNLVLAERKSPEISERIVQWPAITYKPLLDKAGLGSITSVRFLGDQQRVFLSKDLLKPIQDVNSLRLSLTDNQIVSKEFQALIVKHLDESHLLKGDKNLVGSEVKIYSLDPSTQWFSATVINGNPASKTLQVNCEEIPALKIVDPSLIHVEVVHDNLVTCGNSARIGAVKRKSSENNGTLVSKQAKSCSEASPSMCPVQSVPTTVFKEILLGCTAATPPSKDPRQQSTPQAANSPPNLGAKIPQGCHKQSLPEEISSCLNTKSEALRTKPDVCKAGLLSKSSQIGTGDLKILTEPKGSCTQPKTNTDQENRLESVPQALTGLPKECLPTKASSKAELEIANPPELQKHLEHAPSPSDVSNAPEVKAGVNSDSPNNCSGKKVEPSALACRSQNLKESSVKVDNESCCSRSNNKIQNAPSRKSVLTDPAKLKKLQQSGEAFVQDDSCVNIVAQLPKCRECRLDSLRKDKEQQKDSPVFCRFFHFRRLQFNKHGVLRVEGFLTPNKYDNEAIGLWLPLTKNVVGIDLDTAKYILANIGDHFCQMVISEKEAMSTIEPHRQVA", "test": "co-IP; 293T cells transiently cotransfected with a Flag-tagged and a 6Myc-tagged protein; cell extracts two days after transfection; immunoprecipitation with anti-Flag antibodies, anti-Myc Western blot"}, "[2]": {"target": "T3, endogenous JMJD1A (human (endogenous in HCT116)) (UniProt Q9Y4C1)", "T3 sequence": "T1 sequence", "test": "co-IP; endogenous proteins from HCT116 cells; immunoprecipitation with rabbit polyclonal anti-JMJD1A antibodies or control rabbit IgG, Western blot with anti-JMJD2A antibodies"}}, "note": "Results are given in words; binding and its absence hold for the method and conditions named. In cells and extracts the contact can be indirect. Some results given as binding are weak or reduced against the parent protein; the word gives no strength. For part of these data: Sequences can lack the tags named with a protein.", "data": [{"binder": "B1", "values": [{"measurement": "binding", "setting": "Flag-JMJD1A", "result": "binds"}, {"measurement": "binding", "setting": "[1]", "result": "binds"}]}, {"binder": "B2", "values": [{"measurement": "binding", "setting": "[2]", "result": "binds"}]}]}
